The list shows a part of the results. The full chains were built here from the parent and the listed change. Inactive controls read about 0.05.
B1: TEV protease; numbered along this chain (parent)
chain: MGESLFKGPRDYNPISSSICHLTNESDGHTTSLYGIGFGPFIITNKHLFRRNNGTLVVQSLHGVFKVKDTTTLQQHLVDGRDMIIIRMPKDFPPFPQKLKFREPQREERICLVTTNFQTKSMSSMVSDTSCTFPSGDGIFWKHWIQTKDGQCGSPLVSTRDGFIVGIHSASNFTNTNNYFTSVPKNFMELLTNQEAQQWVSGWRLNADSVLWGGHKVFMVKPEEPFQPVKEATQL

Variants of: B1
Assay: raw area under fraction-flipped curve 0-4 h after induction (AUC4h, not background-subtracted), DNA-recorder readout of cleavage of the substrate (dimensionless); higher = more cleavage of the substrate by the protease variant
Conditions: temperature: 34 °C; time window: 0-4 h after rhamnose induction
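Further: Bxb1 expression induced with 0.2% (w/v) L-rhamnose at OD600 near 0.5, cultures sampled hourly, flipped fraction per protease–substrate barcode pair counted by paired-end Illumina sequencing.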

Variant: R102K
- area with substrate ENLYDQS: 0.0553
- area with substrate ENLYEQS: 0.0788
- area with substrate ENLYGQS: 0.0662
- area with substrate ENLYHQS: 0.0649
- area with substrate ENLYMQS: 0.0874
- area with substrate ENLYNQS: 0.0814
- area with substrate ENLYPQS: 0.0703
- area with substrate ENLYQQS: 0.0605
- area with substrate ENLYSQS: 0.0914
- area with substrate ENLYTQS: 0.0856
- area with substrate ENLYVQS: 0.123
- area with substrate ENLYWQS: 0.0899

Variant: S182Q
- area with substrate ENLYDQS: 0.0624
- area with substrate ENLYEQS: 0.06
- area with substrate ENLYGQS: 0.0549
- area with substrate ENLYHQS: 0.0585
- area with substrate ENLYIQS: 0.165
- area with substrate ENLYKQS: 0.0635
- area with substrate ENLYLQS: 0.0588
- area with substrate ENLYMQS: 0.0853
- area with substrate ENLYNQS: 0.0509
- area with substrate ENLYPQS: 0.0805
- area with substrate ENLYQQS: 0.0725
- area with substrate ENLYRQS: 0.0576
- area with substrate ENLYSQS: 0.0668
- area with substrate ENLYTQS: 0.102
- area with substrate ENLYVQS: 0.093
- area with substrate ENLYWQS: 0.0588

Variant: W141T
- area with substrate ENLYDQS: 0.0585
- area with substrate ENLYGQS: 0.0605
- area with substrate ENLYHQS: 0.0686
- area with substrate ENLYIQS: 0.0592
- area with substrate ENLYMQS: 0.0584
- area with substrate ENLYRQS: 0.069
- area with substrate ENLYTQS: 0.0623
- area with substrate ENLYWQS: 0.0729

Variant: M83V
- area with substrate ENLYDQS: 0.0585
- area with substrate ENLYEQS: 0.0705
- area with substrate ENLYGQS: 0.0503
- area with substrate ENLYHQS: 0.06
- area with substrate ENLYMQS: 0.0473
- area with substrate ENLYNQS: 0.0646
- area with substrate ENLYQQS: 0.0641

Variant: M83A
- area with substrate ENLYDQS: 0.0681
- area with substrate ENLYEQS: 0.0444
- area with substrate ENLYGQS: 0.0622
- area with substrate ENLYHQS: 0.0648
- area with substrate ENLYKQS: 0.064
- area with substrate ENLYLQS: 0.0673
- area with substrate ENLYMQS: 0.0635
- area with substrate ENLYNQS: 0.0693
- area with substrate ENLYPQS: 0.044
- area with substrate ENLYRQS: 0.0491
- area with substrate ENLYSQS: 0.0653
- area with substrate ENLYTQS: 0.0751
- area with substrate ENLYVQS: 0.0927
- area with substrate ENLYYQS: 0.0499

Variant: I139H
- area with substrate ENLYDQS: 0.0628
- area with substrate ENLYHQS: 0.0764
- area with substrate ENLYKQS: 0.0586
- area with substrate ENLYMQS: 0.0712
- area with substrate ENLYNQS: 0.0492
- area with substrate ENLYQQS: 0.0571
- area with substrate ENLYRQS: 0.0588
- area with substrate ENLYSQS: 0.0775
- area with substrate ENLYTQS: 0.0676
- area with substrate ENLYWQS: 0.0521

Variant: S209L
- area with substrate ENLYDQS: 0.0392
- area with substrate ENLYGQS: 0.0715
- area with substrate ENLYHQS: 0.0761
- area with substrate ENLYIQS: 0.0796
- area with substrate ENLYKQS: 0.0663
- area with substrate ENLYMQS: 0.102
- area with substrate ENLYNQS: 0.0657
- area with substrate ENLYPQS: 0.062
- area with substrate ENLYQQS: 0.0454

Variant: M88K
- area with substrate ENLYDQS: 0.0549
- area with substrate ENLYEQS: 0.0595
- area with substrate ENLYKQS: 0.054
- area with substrate ENLYNQS: 0.0657
- area with substrate ENLYVQS: 0.0659
- area with substrate ENLYWQS: 0.0633

Variant: M88S
- area with substrate ENLYDQS: 0.0517
- area with substrate ENLYEQS: 0.0639
- area with substrate ENLYGQS: 0.0564
- area with substrate ENLYHQS: 0.0704
- area with substrate ENLYIQS: 0.0768
- area with substrate ENLYKQS: 0.0588
- area with substrate ENLYMQS: 0.0626
- area with substrate ENLYQQS: 0.0527
- area with substrate ENLYRQS: 0.0461
- area with substrate ENLYSQS: 0.0438
- area with substrate ENLYTQS: 0.0339
- area with substrate ENLYVQS: 0.0925

Variant: L190Q
- area with substrate ENLYDQS: 0.0706
- area with substrate ENLYEQS: 0.0669
- area with substrate ENLYGQS: 0.0811
- area with substrate ENLYIQS: 0.0718
- area with substrate ENLYKQS: 0.0422
- area with substrate ENLYLQS: 0.0904
- area with substrate ENLYMQS: 0.0918
- area with substrate ENLYPQS: 0.0514
- area with substrate ENLYQQS: 0.0804
- area with substrate ENLYRQS: 0.0624
- area with substrate ENLYSQS: 0.0745
- area with substrate ENLYTQS: 0.062
- area with substrate ENLYWQS: 0.0746

Variant: L190C
- area with substrate ENLYDQS: 0.0618
- area with substrate ENLYEQS: 0.12
- area with substrate ENLYGQS: 0.0592
- area with substrate ENLYHQS: 0.0647
- area with substrate ENLYKQS: 0.0483
- area with substrate ENLYNQS: 0.0333
- area with substrate ENLYQQS: 0.0411
- area with substrate ENLYSQS: 0.0566
- area with substrate ENLYVQS: 0.116
- area with substrate ENLYWQS: 0.111
- area with substrate ENLYYQS: 0.0679

Variant: Q227G
- area with substrate ENLYDQS: 0.0277
- area with substrate ENLYEQS: 0.0618
- area with substrate ENLYHQS: 0.0704
- area with substrate ENLYMQS: 0.067
- area with substrate ENLYNQS: 0.0582
- area with substrate ENLYQQS: 0.0567
- area with substrate ENLYRQS: 0.01
- area with substrate ENLYTQS: 0.0839

Variant: T181R
- area with substrate ENLYDQS: 0.0548
- area with substrate ENLYEQS: 0.0542
- area with substrate ENLYHQS: 0.0449
- area with substrate ENLYIQS: 0.0463
- area with substrate ENLYKQS: 0.0439
- area with substrate ENLYMQS: 0.0466
- area with substrate ENLYPQS: 0.0371
- area with substrate ENLYQQS: 0.0491
- area with substrate ENLYRQS: 0.0492
- area with substrate ENLYSQS: 0.0517
- area with substrate ENLYTQS: 0.047
- area with substrate ENLYVQS: 0.0506
- area with substrate ENLYWQS: 0.0491
- area with substrate ENLYYQS: 0.0577

Variant: Q197F
- area with substrate ENLYDQS: 0.0731
- area with substrate ENLYEQS: 0.073
- area with substrate ENLYGQS: 0.066
- area with substrate ENLYIQS: 0.147
- area with substrate ENLYKQS: 0.0299
- area with substrate ENLYPQS: 0.0767
- area with substrate ENLYQQS: 0.0638
- area with substrate ENLYRQS: 0.057
- area with substrate ENLYTQS: 0.0956
- area with substrate ENLYVQS: 0.168
- area with substrate ENLYWQS: 0.0762
- area with substrate ENLYYQS: 0.079

Variant: Q197N
- area with substrate ENLYDQS: 0.0632
- area with substrate ENLYEQS: 0.0412
- area with substrate ENLYGQS: 0.037
- area with substrate ENLYHQS: 0.0655
- area with substrate ENLYKQS: 0.0573
- area with substrate ENLYMQS: 0.0632
- area with substrate ENLYNQS: 0.0649
- area with substrate ENLYSQS: 0.0549
- area with substrate ENLYYQS: 0.066

Variant: T159F
- area with substrate ENLYDQS: 0.0625
- area with substrate ENLYGQS: 0.0372
- area with substrate ENLYHQS: 0.0563
- area with substrate ENLYNQS: 0.0564
- area with substrate ENLYPQS: 0.0581
- area with substrate ENLYTQS: 0.0799
- area with substrate ENLYVQS: 0.129
- area with substrate ENLYWQS: 0.0586

— the supplement of paper PMC12217912
